We go through three molecules from paper PMC8060364, “RNA binding of Hfq monomers promotes RelA-mediated hexamerization in a limiting Hfq environment” (Nature Communications, 2021).

Sequences and labels used below:
B1: Hfq:D9A proximal face mutant (purified) (natural protein)
chain: not shown
notes: Hfq of E. coli with D9A, introduced in PT7-Hfq (primers 3168-3169); Same construct as m1 except for the mutation; No tag is stated; source: E. coli BL21-DE3 Δhfq carrying pET-15b, purified (heated at 85 °C, RNase A, His Trap Chelating HP column)
B2: Hfq:I30D distal mutant (purified) (natural protein)
chain: not shown
notes: Hfq of E. coli with I30D, introduced in PT7-Hfq (primers 3054-3055); Same construct as m1 except for the mutation; No tag is stated; source: E. coli BL21-DE3 Δhfq carrying pET-15b, purified (heated at 85 °C, RNase A, His Trap Chelating HP column)
B3: Hfq:G29A distal mutant (purified) (natural protein)
chain: not shown
notes: Hfq of E. coli with G29A, introduced in PT7-Hfq (primers 3170-3171); Same construct as m1 except for the mutation; No tag is stated; source: E. coli BL21-DE3 Δhfq carrying pET-15b, purified (heated at 85 °C, RNase A, His Trap Chelating HP column)

This assay addresses T1, Hfq wild type (purified) (E. coli, UniProt P0A6X3).
T1 construct: RNA chaperone Hfq of E. coli; the hfq gene amplified with primers 2687-2351 and cloned in pET-15b with NcoI/BamHI; No tag is stated for Hfq although it was purified on a His Trap column; Cloning at NcoI/BamHI of pET-15b probably leaves out the vector's His tag (surmise); also called PT7-Hfq; source: E. coli BL21-DE3 Δhfq carrying pET-15b, purified (heated at 85 °C, RNase A, His Trap Chelating HP …)
The experiment in a line: native gel or EMSA; limiting wild type Hfq (from 0.5 nM) mixed with Hfq mutant (4.5 nM) at different ratios, with RelA and labeled RNA (1 nM; sodA 210 nt or RyhB 50 nt), binding buffer C, 22 °C for 10 min, 4% native gel; the labeled RNA is what is seen. The conditions noted are these: both partners purified. A general note: In EMSA bound probe runs differently from free probe, usually more slowly.
Turning to B1, the binding result is reported as “binds”.

Regarding B2, the binding result is on record as “binds”.

B3: the binding result is on record as “binds”.
